Laboratory results as given in the RNAGym collection of RNA variant scans (doi:10.7554/elife.90254).
The source gives no read counts; variants with many changes may rest on few reads.

B1: LINE1-full (parent)
chain: UACGUAGGUGGUUUUCCCCUGAUAGUGCUAAGGGGGCCUGGAAGUUUGGACUGGGCAGAGCUCAACACAGCGUGGCAAAGUGGCUGUGGCUAGACUGCCUCUCUGGAUUCCUCGUCACUCAGCAGGGCAUCUCUGAGAGAAAUGCC

Variants of: B1
Assay: self-cleavage, relative activity (ratio to wild type); higher = more cleavage; in vitro, sequencing; the parent is a self-cleaving ribozyme
Variant U9A A31U U134C has a self-cleavage of 1.02.
A79G U100C A141G showed a self-cleavage of 1.41.
Variant U52A A77U U132C A138G has a self-cleavage of 2.09.
U23C G72A U73C C131A gave a self-cleavage of 1.72.
U73C A77G G89U U100A showed a self-cleavage of 0.03.
Variant A64U A67G U115C has a self-cleavage of 0.
Variant U14C C63U U96A U115C has a self-cleavage of 0.03.
With U45A A69G U81C the self-cleavage was 0.6.
For G27C C113U A138U A142G, the self-cleavage was 1.51.
Work on U13C A117C U130C yielded a self-cleavage of 2.
With C51G C99U A138U the self-cleavage was 1.43.
Work on A42U U73G U108C yielded a self-cleavage of 0.94.
With U52C A117G A138G A142G the self-cleavage was 2.63.
With A79G U109C A129G U130C the self-cleavage was 0.
With G25A A42G U143C the self-cleavage was 1.23.
Variant A50G A69G U100C C101U has a self-cleavage of 0.
In the case of G10A C90G C120U U143C, the self-cleavage is reported as 0.08.
With U47A A107G U134C the self-cleavage was 0.66.
Variant C28G A42G A79G A138U U143G has a self-cleavage of 0.78.
For U12C A77G A124U, the self-cleavage was 2.18.
In the case of A42G A57U A78G A129U, the self-cleavage is reported as 0.12.
For U5A U13C A124U, the self-cleavage was 0.95.
U12C C51U A78U G83U showed a self-cleavage of 1.46.
Work on U73G U132C A141G yielded a self-cleavage of 2.3.
For U15A U23C A94G A136G, the self-cleavage was 0.
For A94G A129U A141U, the self-cleavage was 0.22.
For U73A U102C C118U A121G G127U, the self-cleavage was 1.86.
With U102A U115C A142G the self-cleavage was 1.2.
G32A A129U C146U gave a self-cleavage of 1.26.
With U5C U20C A107U the self-cleavage was 0.92.
For A42G G70U A140G, the self-cleavage was 0.03.
U20C G25A A42G gave a self-cleavage of 1.31.
For G33A U47C U62C, the self-cleavage was 0.
In the case of G32A U73G U134C, the self-cleavage is reported as 0.95.
For A64U U115A A121G, the self-cleavage was 0.62.
A77G U115G U119C showed a self-cleavage of 1.31.
U12C U81A A136G showed a self-cleavage of 2.35.
U5A U12C U15C A67G U102C U143A gave a self-cleavage of 0.38.
G7U U62C U73C showed a self-cleavage of 0.3.
In the case of U5C U85C U134C, the self-cleavage is reported as 0.53.
For A65G A117C A138G, the self-cleavage was 0.06.
For U23C U52C A77U U81A A142G, the self-cleavage was 1.34.
In the case of U9A A64U A67G, the self-cleavage is reported as 0.12.
For G89U U115C U130A, the self-cleavage was 0.08.
For A6G A107U G114U, the self-cleavage was 0.7.
G86U A92G A136G showed a self-cleavage of 0.07.
G4A U9C U23C C116U G125A gave a self-cleavage of 0.67.
For U9C A67U U73A, the self-cleavage was 0.15.
Work on A107U U109A A124U A136G yielded a self-cleavage of 2.29.
For A30G U87A U91A, the self-cleavage was 0.17.
With U15C U62C U73A U100A the self-cleavage was 0.05.
With U13C U14C U85A U119C the self-cleavage was 0.
In the case of A24G A43G A57U, the self-cleavage is reported as 0.56.
With U47C A59G A78G the self-cleavage was 0.
A57U A65G A94U gave a self-cleavage of 0.05.
For U15C U26C A140G, the self-cleavage was 1.31.
With C68U U73C G125U the self-cleavage was 0.02.
In the case of A43U A94G U132C, the self-cleavage is reported as 0.12.
In the case of C17U U62A A94G U112C, the self-cleavage is reported as 0.13.
For A57U A59G C84U A117G, the self-cleavage was 0.09.
U9C U13C U47A A94C A107G A142G showed a self-cleavage of 0.
With U20A A43G U112C A129U the self-cleavage was 1.99.
Variant A22G A67U A78G C90U U108C has a self-cleavage of 0.04.
In the case of U14C U23C A50G A77G G122A A136U, the self-cleavage is reported as 2.01.
With U14C A77G U81A U132C the self-cleavage was 2.68.
U13A U46C U62C gave a self-cleavage of 0.03.
For U12C A30G G53A A94U U100C, the self-cleavage was 0.44.
U26C A78G U91C showed a self-cleavage of 0.57.
U14G C51U A57G U73A gave a self-cleavage of 1.02.
Variant U12C U13A U100C has a self-cleavage of 1.97.
With U29G G49A U52A U62A A65G A69G U134G the self-cleavage was 0.
For U47C G74A U102C, the self-cleavage was 1.01.
Variant U13C A24U G36A A78G U100G has a self-cleavage of 0.33.
G27A A78G A92G showed a self-cleavage of 0.09.
In the case of U5A G7U U13A, the self-cleavage is reported as 0.77.
Variant A6G G27A G60A has a self-cleavage of 0.09.
Variant U14C U46C A121U U132A has a self-cleavage of 1.39.
Work on U39A U96A A107G A138G yielded a self-cleavage of 0.
U13C G74A U130C A141G gave a self-cleavage of 1.06.
Work on A64G U96A U134C A142U yielded a self-cleavage of 0.09.
With A42U U62C A77C U119G the self-cleavage was 0.14.
For A42G C95A U132A A138G, the self-cleavage was 0.09.
In the case of A59U A69G U132C, the self-cleavage is reported as 0.53.
For U96C A129G A141U, the self-cleavage was 0.26.
Work on U73C U119G A140G yielded a self-cleavage of 2.63.
A107G U115A A136G gave a self-cleavage of 2.19.
For U15G U26A G48A, the self-cleavage was 0.77.
A94G U96G U112A A136G gave a self-cleavage of 0.39.
Variant U9A A67G U130C has a self-cleavage of 0.9.
For U1C A2G A65G A124U, the self-cleavage was 0.22.
Variant U96A A129G A140G has a self-cleavage of 0.
A2G U29C U112C showed a self-cleavage of 0.44.
With A69G A79G A142G the self-cleavage was 0.
Variant A94G A121U C145G has a self-cleavage of 0.3.
U46C U134C A142G gave a self-cleavage of 0.63.
For A2G U14A U29C U91C C113A, the self-cleavage was 1.4.
U15C A64C A117G gave a self-cleavage of 0.42.
G4U U20A A22G U62C U132A A140C showed a self-cleavage of 0.
Work on C3U A64U U108C yielded a self-cleavage of 0.69.
In the case of U12C U29C U109C G127A A129U, the self-cleavage is reported as 0.69.
For G11A U81A C84U A129G, the self-cleavage was 0.14.
A24U U47C U62C A94G A142G showed a self-cleavage of 0.
With A67G A77G U87A U134C the self-cleavage was 0.19.
With U9A U52A A78G A107G the self-cleavage was 0.
U14C U87C A117U showed a self-cleavage of 0.32.
C3U U15C A77G showed a self-cleavage of 1.34.
U12C A43G U100A A140G showed a self-cleavage of 1.74.
With G41U U85C C113U the self-cleavage was 0.11.
In the case of A50U A78G A94U U134G, the self-cleavage is reported as 0.09.
In the case of U20A A65G A94G, the self-cleavage is reported as 0.4.
In the case of U12C A50U A59G U143A, the self-cleavage is reported as 0.24.
Work on G36C U81C A124C yielded a self-cleavage of 0.86.
With U26A A69G U108C the self-cleavage was 0.
For U12C A22G U47C, the self-cleavage was 0.
In the case of A42G A64U U81A, the self-cleavage is reported as 0.44.
U12C G32U C118A showed a self-cleavage of 1.2.
In the case of U26C A69U U87A U96C U119C, the self-cleavage is reported as 0.
U13C C99U U119C A140G showed a self-cleavage of 0.95.
For A59G A64G A67G A69U C111U U132A, the self-cleavage was 0.48.
Work on A69U C76U A79G U104A yielded a self-cleavage of 0.03.
G72A G74A U115C A140G U143C showed a self-cleavage of 1.11.
Work on U15C A77G C113U A121U yielded a self-cleavage of 2.23.
U14C A24G G93A U104A A117G showed a self-cleavage of 0.
U9G G10U C56A showed a self-cleavage of 0.12.
A6U A64U U96C U130C A138G showed a self-cleavage of 0.18.
U96C U108C U130C A138U showed a self-cleavage of 0.
In the case of U39A A43G A69G U132C G144A, the self-cleavage is reported as 0.07.
In the case of G54U A65G A67C U100C, the self-cleavage is reported as 0.06.
With A77G U112A G135A the self-cleavage was 2.18.
Work on G7A A50G A77G yielded a self-cleavage of 0.
In the case of U15C G41A A107U U109G A129G, the self-cleavage is reported as 0.
A30U A57G U132C showed a self-cleavage of 0.78.
U13A A94G A121G A138G gave a self-cleavage of 0.
In the case of U47C U91A A124G, the self-cleavage is reported as 0.86.
Work on A2U A65G U130A yielded a self-cleavage of 0.05.
For U13A U62C A78G A136G, the self-cleavage was 0.04.
With U14C A22G U100C U104G the self-cleavage was 2.01.
For C63U A124G A136G, the self-cleavage was 0.2.
Work on U14C A79G A138G yielded a self-cleavage of 1.07.
With U26C C37U U73C A142U the self-cleavage was 0.59.
Variant C3U U104A U143A has a self-cleavage of 0.83.
In the case of U9C U112C A136G, the self-cleavage is reported as 1.51.
With A2G A43G C90U A94U U100C U130C the self-cleavage was 0.12.
C3U U12C A136G A142C showed a self-cleavage of 2.03.
With G49A U52C U73A the self-cleavage was 0.73.
Variant U15C A64U G114A U134C has a self-cleavage of 0.42.
With A42G G72U G105A U130C U134G the self-cleavage was 1.62.
U12C U13A A59G A78U A136G showed a self-cleavage of 0.1.
Variant U26C U52A U102C A138G A141G has a self-cleavage of 1.1.
For U12C U73G A136G, the self-cleavage was 1.41.
Variant U12C A59U A64G U73C has a self-cleavage of 0.21.
U13C A30G A129G A142G gave a self-cleavage of 1.53.
A64G A94G C116A U134C showed a self-cleavage of 0.12.
Work on U14C U20A A79G U134G yielded a self-cleavage of 0.61.
In the case of A24G G27A G36A, the self-cleavage is reported as 1.
Variant U1C G58A A124G has a self-cleavage of 0.09.
For U12G G27A U96C, the self-cleavage was 0.17.
For A42G A65G U104A, the self-cleavage was 0.
In the case of U26A A42G U85C, the self-cleavage is reported as 0.
With U15A U23C A24G G72A U87A U96A A141U the self-cleavage was 0.04.
With U14C U23C A64G the self-cleavage was 0.69.
For U15C A65G A121G, the self-cleavage was 0.31.
With G41A U62C U112C the self-cleavage was 0.06.
Variant C51U A57C A141G has a self-cleavage of 0.01.
Work on U81C A94G G105U G114A yielded a self-cleavage of 0.18.
U39G U102C U115A showed a self-cleavage of 2.42.
For A42G A57U A94U A140G A141G, the self-cleavage was 0.02.
